# Measured values taken from the supplement of paper PMC10037445.
# Over roughly 2,900 compounds, “NF-kB SEAP reporter activity, fold change vs agonist alone” has its median near 0.99; the highest 2% begin near 2.6. This is one part of the list.
# Legend:
# RAW-Dual [1] = experiment: NF-kB SEAP reporter activity, fold change vs agonist alone; higher = enhanced NF-kB activity; conditions: library stock concentration (final ~1000-fold dilution): 10 mM
# Method in brief: (§1)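 After 50 nL of library stock was delivered by pin tool to RAW-Dual macrophages (50,000 cells/well, DMEM, 384-well plates), a PRR agonist was added 1 h later and the plates were kept at 37 °C, 5% CO2. Twenty hours later, IRF was read from supernatant by QuantiLuc luminescence and NF-κB by QuantiBlue absorbance at 620 nm. Reporter activity is stated as fold change over agonist-alone wells. Wells with IncuCyte confluency under 70% of agonist controls in both mask sets were counted as cytotoxic.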
# RAW-Dual [2] = experiment: NF-kB SEAP reporter activity, fold change vs agonist alone; cytotoxicity flag (confluency mask): not cytotoxic; higher = enhanced NF-kB activity
# Method in brief: as §1
# RAW-Dual [3] = experiment: NF-kB SEAP reporter activity, fold change vs agonist alone; cytotoxicity flag (confluency mask): cytotoxic (confluency <70% of control); higher = enhanced NF-kB activity
# Method in brief: as §1
# [4] = cytotoxicity flag (confluency mask): not cytotoxic, agonist: Imiquimod (TLR7) […]
# [5] = cytotoxicity flag (confluency mask): not cytotoxic, agonist: MPLA (TLR4) […]
# [6] = agonist: ODN 1826 (TLR9) 0.5 ug/mL
# [7] = agonist: Pam2CSK4 (TLR2/6) 0.1 ug/mL
# [8] = agonist: Pam3CSK4 (TLR2/1) 0.1 ug/mL
# [9] = cytotoxicity flag (confluency mask): cytotoxic (confluency <70% of control), agonist: Imiquimod (TLR7) […]
# [10] = cytotoxicity flag (confluency mask): cytotoxic (confluency <70% of control), agonist: MPLA (TLR4) […]
compound,measurement,setting,value
Cc1cc(Nc2ncnc3ccc(NC4=NC(C)(C)CO4)cc23)ccc1Oc1ccn2ncnc2c1,NF-kB SEAP reporter activity,RAW-Dual [1]; [4],0.247
same,NF-kB SEAP reporter activity,RAW-Dual [1]; [5],1.01
Cc1cc(Nc2ncnc3ccc(NC4=NC(C)(C)CO4)cc23)ccc1Oc1ccn2ncnc2c1 (library stock concentration (final ~1000-fold dilution): 10 mM),NF-kB SEAP reporter activity,RAW-Dual [2]; agonist: LPS (TLR4) 0.1 ug/mL,1.1
same,NF-kB SEAP reporter activity,RAW-Dual [2]; [6],0.65
same,NF-kB SEAP reporter activity,RAW-Dual [2]; [7],0.749
same,NF-kB SEAP reporter activity,RAW-Dual [2]; [8],1.04
O=C(c1c(F)ccc(NS(=O)(=O)N2CCC(F)C2)c1F)c1c[nH]c2ncc(-c3cnc(C4CC4)nc3)cc12 (stereo not drawn) (library stock concentration (final ~1000-fold dilution): 10 mM),NF-kB SEAP reporter activity,RAW-Dual [2]; agonist: LPS (TLR4) 0.1 ug/mL,3.62
same,NF-kB SEAP reporter activity,RAW-Dual [2]; [6],1.42
same,NF-kB SEAP reporter activity,RAW-Dual [2]; [7],0.526
same,NF-kB SEAP reporter activity,RAW-Dual [2]; [8],0.5
O=C(c1c(F)ccc(NS(=O)(=O)N2CCC(F)C2)c1F)c1c[nH]c2ncc(-c3cnc(C4CC4)nc3)cc12 (stereo not drawn),NF-kB SEAP reporter activity,RAW-Dual [1]; [4],1.12
same,NF-kB SEAP reporter activity,RAW-Dual [1]; [5],1.52
O=C(NC1=CC(=O)[C@@H]2O[C@@H]2[C@@H]1O)c1ccccc1O (library stock concentration (final ~1000-fold dilution): 10 mM),NF-kB SEAP reporter activity,RAW-Dual [2]; agonist: LPS (TLR4) 0.1 ug/mL,0.954
same,NF-kB SEAP reporter activity,RAW-Dual [2]; [6],0.718
same,NF-kB SEAP reporter activity,RAW-Dual [2]; [7],0.356
same,NF-kB SEAP reporter activity,RAW-Dual [2]; [8],0.314
O=C(NC1=CC(=O)[C@@H]2O[C@@H]2[C@@H]1O)c1ccccc1O,NF-kB SEAP reporter activity,RAW-Dual [1]; [4],0.849
same,NF-kB SEAP reporter activity,RAW-Dual [1]; [5],0.949
CC(C)NC(=O)C1CCC(n2c(=NC(=O)c3ccc(F)cc3)[nH]c3ccc(CN4CCC(C(C)(C)O)CC4)cc32)CC1 (stereo not drawn) (library stock concentration (final ~1000-fold dilution): 10 mM),NF-kB SEAP reporter activity,RAW-Dual [2]; agonist: LPS (TLR4) 0.1 ug/mL,1.17
same,NF-kB SEAP reporter activity,RAW-Dual [2]; [6],0.713
same,NF-kB SEAP reporter activity,RAW-Dual [2]; [7],1.24
same,NF-kB SEAP reporter activity,RAW-Dual [2]; [8],2.16
CC(C)NC(=O)C1CCC(n2c(=NC(=O)c3ccc(F)cc3)[nH]c3ccc(CN4CCC(C(C)(C)O)CC4)cc32)CC1 (stereo not drawn),NF-kB SEAP reporter activity,RAW-Dual [1]; [4],1.44
same,NF-kB SEAP reporter activity,RAW-Dual [1]; [5],0.822
Cc1cccc(Nc2nc(NC3CCCCC3N)ncc2C(N)=O)c1.Cl.Cl (stereo not drawn) (library stock concentration (final ~1000-fold dilution): 10 mM),NF-kB SEAP reporter activity,RAW-Dual [3]; agonist: LPS (TLR4) 0.1 ug/mL,0.227
same,NF-kB SEAP reporter activity,RAW-Dual [3]; [6],0.179
same,NF-kB SEAP reporter activity,RAW-Dual [3]; [7],0.158
same,NF-kB SEAP reporter activity,RAW-Dual [3]; [8],0.187
Cc1cccc(Nc2nc(NC3CCCCC3N)ncc2C(N)=O)c1.Cl.Cl (stereo not drawn),NF-kB SEAP reporter activity,RAW-Dual [1]; [9],0.364
same,NF-kB SEAP reporter activity,RAW-Dual [1]; [10],0.345
O=C(O)CCN1C(=O)/C(=C2/C(=O)Nc3ccc(Cl)cc32)SC1=S,NF-kB SEAP reporter activity,RAW-Dual [1]; [4],0.954
same,NF-kB SEAP reporter activity,RAW-Dual [1]; [5],1.18
O=C(O)CCN1C(=O)/C(=C2/C(=O)Nc3ccc(Cl)cc32)SC1=S (library stock concentration (final ~1000-fold dilution): 10 mM),NF-kB SEAP reporter activity,RAW-Dual [2]; agonist: LPS (TLR4) 0.1 ug/mL,1.86
same,NF-kB SEAP reporter activity,RAW-Dual [2]; [6],0.841
same,NF-kB SEAP reporter activity,RAW-Dual [2]; [7],1.4
same,NF-kB SEAP reporter activity,RAW-Dual [2]; [8],1.57
COc1cc(Nc2ncc3c(n2)-c2ccc(Cl)cc2C(c2c(F)cccc2OC)=NC3)ccc1C(=O)O (library stock concentration (final ~1000-fold dilution): 10 mM),NF-kB SEAP reporter activity,RAW-Dual [2]; agonist: LPS (TLR4) 0.1 ug/mL,0.64
same,NF-kB SEAP reporter activity,RAW-Dual [2]; [6],0.531
same,NF-kB SEAP reporter activity,RAW-Dual [2]; [7],0.392
same,NF-kB SEAP reporter activity,RAW-Dual [2]; [8],0.497
COc1cc(Nc2ncc3c(n2)-c2ccc(Cl)cc2C(c2c(F)cccc2OC)=NC3)ccc1C(=O)O,NF-kB SEAP reporter activity,RAW-Dual [1]; [4],0.662
same,NF-kB SEAP reporter activity,RAW-Dual [1]; [5],0.756
O=C(O)c1cc(C(=O)O)c(C(=O)N(Cc2cccc(Oc3ccccc3)c2)C2CCCc3ccccc32)cc1C(=O)O (stereo not drawn) (library stock concentration (final ~1000-fold dilution): 10 mM),NF-kB SEAP reporter activity,RAW-Dual [2]; agonist: LPS (TLR4) 0.1 ug/mL,1.22
same,NF-kB SEAP reporter activity,RAW-Dual [2]; [6],0.926
same,NF-kB SEAP reporter activity,RAW-Dual [2]; [7],1.03
same,NF-kB SEAP reporter activity,RAW-Dual [2]; [8],1.07
O=C(O)c1cc(C(=O)O)c(C(=O)N(Cc2cccc(Oc3ccccc3)c2)C2CCCc3ccccc32)cc1C(=O)O (stereo not drawn),NF-kB SEAP reporter activity,RAW-Dual [1]; [4],0.916
same,NF-kB SEAP reporter activity,RAW-Dual [1]; [5],0.909
CCc1ccc(/C=C2/SC(=S)NC2=O)cc1,NF-kB SEAP reporter activity,RAW-Dual [1]; [4],0.857
same,NF-kB SEAP reporter activity,RAW-Dual [1]; [5],0.857
CCc1ccc(/C=C2/SC(=S)NC2=O)cc1 (library stock concentration (final ~1000-fold dilution): 10 mM),NF-kB SEAP reporter activity,RAW-Dual [2]; agonist: LPS (TLR4) 0.1 ug/mL,0.985
same,NF-kB SEAP reporter activity,RAW-Dual [2]; [6],0.738
same,NF-kB SEAP reporter activity,RAW-Dual [2]; [7],0.864
same,NF-kB SEAP reporter activity,RAW-Dual [2]; [8],0.461
Cc1ccc(Nc2nccc(N(C)c3ccc4c(C)n(C)nc4c3)n2)cc1S(N)(=O)=O,NF-kB SEAP reporter activity,RAW-Dual [1]; [4],1.68
same,NF-kB SEAP reporter activity,RAW-Dual [1]; [5],1.9
Cc1ccc(Nc2nccc(N(C)c3ccc4c(C)n(C)nc4c3)n2)cc1S(N)(=O)=O (library stock concentration (final ~1000-fold dilution): 10 mM),NF-kB SEAP reporter activity,RAW-Dual [2]; agonist: LPS (TLR4) 0.1 ug/mL,2.03
same,NF-kB SEAP reporter activity,RAW-Dual [2]; [6],1.33
same,NF-kB SEAP reporter activity,RAW-Dual [2]; [7],0.781
same,NF-kB SEAP reporter activity,RAW-Dual [2]; [8],1.17
CN1CCc2c(c3ccccc3n2Cc2ccc(C(=O)NO)cc2)C1.Cl (library stock concentration (final ~1000-fold dilution): 10 mM),NF-kB SEAP reporter activity,RAW-Dual [2]; agonist: LPS (TLR4) 0.1 ug/mL,5.1
same,NF-kB SEAP reporter activity,RAW-Dual [2]; [6],1.71
same,NF-kB SEAP reporter activity,RAW-Dual [2]; [7],1.08
same,NF-kB SEAP reporter activity,RAW-Dual [2]; [8],1.59
CN1CCc2c(c3ccccc3n2Cc2ccc(C(=O)NO)cc2)C1.Cl,NF-kB SEAP reporter activity,RAW-Dual [1]; [4],2.44
same,NF-kB SEAP reporter activity,RAW-Dual [1]; [5],2.55
COc1cccc(-c2cc(F)ccc2C2Cc3nc(N)nc(C)c3C(=O)N2)n1 (stereo not drawn),NF-kB SEAP reporter activity,RAW-Dual [1]; [4],0.226
same,NF-kB SEAP reporter activity,RAW-Dual [1]; [5],0.406
COc1cccc(-c2cc(F)ccc2C2Cc3nc(N)nc(C)c3C(=O)N2)n1 (stereo not drawn) (library stock concentration (final ~1000-fold dilution): 10 mM),NF-kB SEAP reporter activity,RAW-Dual [2]; agonist: LPS (TLR4) 0.1 ug/mL,0.206
same,NF-kB SEAP reporter activity,RAW-Dual [2]; [6],0.215
same,NF-kB SEAP reporter activity,RAW-Dual [2]; [7],0.0694
same,NF-kB SEAP reporter activity,RAW-Dual [2]; [8],0.145
O=c1cc(N2CCOCC2)oc2c(-c3ccccc3)cccc12,NF-kB SEAP reporter activity,RAW-Dual [1]; [9],1.07
same,NF-kB SEAP reporter activity,RAW-Dual [1]; [10],1.63
O=c1cc(N2CCOCC2)oc2c(-c3ccccc3)cccc12 (library stock concentration (final ~1000-fold dilution): 10 mM),NF-kB SEAP reporter activity,RAW-Dual [3]; agonist: LPS (TLR4) 0.1 ug/mL,1.81
same,NF-kB SEAP reporter activity,RAW-Dual [3]; [6],1.34
same,NF-kB SEAP reporter activity,RAW-Dual [3]; [7],0.984
same,NF-kB SEAP reporter activity,RAW-Dual [3]; [8],1.19
